# Data as given in the supplement of paper PMC3334620.
# In all, about 33,000 sequences were measured (“E-score (-0.5 to 0.5)”: median about -0.013, highest 2% from about 0.3 on). The list shows a part of the results.
# Molecular target: T1, Msn1 (UniProt P22148)
# T1 sequence: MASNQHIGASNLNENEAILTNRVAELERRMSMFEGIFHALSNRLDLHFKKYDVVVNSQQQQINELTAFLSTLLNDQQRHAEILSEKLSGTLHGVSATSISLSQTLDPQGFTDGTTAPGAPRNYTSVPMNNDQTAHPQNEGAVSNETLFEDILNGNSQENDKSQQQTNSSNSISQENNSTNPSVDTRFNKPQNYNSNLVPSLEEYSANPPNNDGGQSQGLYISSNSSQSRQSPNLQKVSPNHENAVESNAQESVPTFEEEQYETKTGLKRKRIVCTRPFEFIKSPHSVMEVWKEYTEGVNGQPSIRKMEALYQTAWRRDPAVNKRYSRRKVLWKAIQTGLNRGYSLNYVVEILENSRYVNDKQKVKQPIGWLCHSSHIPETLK
# Assay: PBM E-score (8-mer binding enrichment) (E-score (-0.5 to 0.5)); higher = stronger / more preferred TF binding; most listed sequences are background and not binding sites
# Conditions: protein concentration: 200 nM; construct: GST-full length
# Outline: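 Yeast transcription factors carrying a GST tag, as full-length proteins or DNA-binding domains, were produced by PURExpress in vitro transcription/translation. About 100-200 nM protein was applied to universal all-10-mer Agilent arrays, double-stranded by primer extension on fresh or once-stripped slides. Bound protein was detected with fluorescent anti-GST, and scans were normalised with masliner. The Universal PBM Analysis Suite gave each ungapped eight-base word, pooled with its reverse complement, an E-score, a modified Wilcoxon-Mann-Whitney statistic.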
row,Sequence,PBM E-score
1,CAGAACTA,-0.00437
2,CCCAACCC,-0.072
3,ACTGGAGC,-0.292
4,CGTCGTAC,0.0913
5,GGCACGAA,0.0773
6,CAGATCTG,-0.187
7,AATTAAGT,0.168
8,AATTCAGA,0.264
9,CGACAAAC,0.36
10,CACGGGGG,-0.0556
11,TGACCTCA,-0.018
12,CAATGCTG,-0.142
13,GGAGTACA,0.0562
14,CTTGGCAA,-0.0415
15,CAAAAGCG,0.146
16,GGAATTCA,0.0953
17,ACAAAACT,0.291
18,AATCTAGG,0.0743
19,AGCGTGTA,-0.0217
20,ACAGTGTG,-0.0998
21,GAATAGAC,0.103
22,GTTGATCA,0.0145

row,Sequence,PBM E-score
1,CCAAAAGG,-0.112
2,CCTCAATC,0.053
3,ACATAATA,0.259
4,GTGGGTGA,0.00965
5,ACTGATGA,0.095
6,GAAACCGA,-0.0428
7,CATCGGAG,-0.0859
8,CTGATCAA,-0.151
9,CTGCAAGC,-0.17
10,CCAGCAGA,0.0113
11,ACATCGGC,0.156
12,GCATTCAC,-0.0831
13,ACAATAGT,0.204
14,AAGAATAA,0.0437
15,GCAAAGAC,0.0622
16,AACAGACG,0.0017
17,AAACTTCG,-0.175
18,CCAGACGA,0.0196
19,ATCTGGCA,-0.0334
20,ACGGCAAG,-0.0961
21,ACTTGGAA,-0.0213
22,AATGCCAC,-0.21

row,Sequence,PBM E-score
1,AAGGAGCT,-0.203
2,CTACATGC,0.0071
3,GTCGTATA,0.0804
4,AAGAATAG,0.048
5,AATGGAAC,0.156
6,ACCAGAGC,-0.124
7,AACTCAAG,0.0432
8,CGAAAGCG,0.0854
9,ACTTGGCG,-0.102
10,GCGACCCC,-0.371
11,AGTTGGTA,0.123
12,AGGGCTCC,-0.321
13,GGGACATA,0.488
14,ATCTCATG,0.129
15,CCTTGTCG,0.0372
16,CAACGTGC,-0.103
17,ATATAGCG,-0.101
18,AGCACCAT,-0.184
19,CTCCGTCC,-0.221
20,AGCTCTAT,0.00834
21,AGGTAAAC,0.172
22,CATATCCG,0.0402

row,Sequence,PBM E-score
1,GAATCCAC,0.0116
2,CGTGCAAG,-0.00022
3,AGCACCCG,-0.156
4,GCGGCTCC,-0.285
5,CGCTTAGC,-0.191
6,ACGAATAT,0.176
7,CCGTGGCA,0.0076
8,GGATCACC,-0.0861
9,CTTAATTC,0.147
10,GACAGCGA,-0.0599
11,GGAATCCC,-0.209
12,ACCTATTG,-0.0863
13,ATCACCCA,-0.118
14,GGTTATTA,-0.0629
15,GTACGACA,0.345
16,ACGCATTC,0.00468
17,CACAGATA,-0.0238
18,CAGTCTGC,0.0419
19,AGGGACAC,0.45
20,GGGGCTTA,-0.244
21,ACTTCACG,0.0788
22,AGCGACGC,0.00685

row,Sequence,PBM E-score
1,AAACACCG,0.0722
2,ACGATAGC,0.0171
3,ACTTTAGA,0.0439
4,GTGCGGAA,0.0291
5,GATTCAAC,0.0385
6,ATGACCAC,0.0116
7,GGACCATA,-0.0194
8,AATTCCGC,0.146
9,AAAAGCAT,0.0095
10,AGCGAGCT,0.0839
11,CGCGTGAG,0.0732
12,AGGTTCAC,-0.0728
13,AAACTACT,0.152
14,GACCGGTA,-0.22
15,ACTCCAGG,-0.0858
16,GCTAGTAA,-0.0133
17,AGTGTATA,-0.0751
18,CAATCTAA,0.0421
19,GAGTTCGC,0.0343
20,AACGGAGA,-0.0978
21,ATATCGCG,0.212
